Results on 24 molecules are retold here after article PMC4336329 (PLoS ONE, 2015).

The whole screen tested about 310,000 compounds, of which about 14,000 (4.5%) showed an effect of 50% or more. Effects have a minus sign here. This is one part of the list.
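Further: peak tail current of the secondary pulse compared with the same well before compound.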

This experiment deals with human ether-à-go-go-related gene (hERG) potassium channel (human, UniProt Q12809). Briefly: primary screen, population patch clamp on CHO cells stably expressing hERG.
human ether-à-go-go-related gene (hERG) potassium channel, sequence (Q12809 whole entry, looked up): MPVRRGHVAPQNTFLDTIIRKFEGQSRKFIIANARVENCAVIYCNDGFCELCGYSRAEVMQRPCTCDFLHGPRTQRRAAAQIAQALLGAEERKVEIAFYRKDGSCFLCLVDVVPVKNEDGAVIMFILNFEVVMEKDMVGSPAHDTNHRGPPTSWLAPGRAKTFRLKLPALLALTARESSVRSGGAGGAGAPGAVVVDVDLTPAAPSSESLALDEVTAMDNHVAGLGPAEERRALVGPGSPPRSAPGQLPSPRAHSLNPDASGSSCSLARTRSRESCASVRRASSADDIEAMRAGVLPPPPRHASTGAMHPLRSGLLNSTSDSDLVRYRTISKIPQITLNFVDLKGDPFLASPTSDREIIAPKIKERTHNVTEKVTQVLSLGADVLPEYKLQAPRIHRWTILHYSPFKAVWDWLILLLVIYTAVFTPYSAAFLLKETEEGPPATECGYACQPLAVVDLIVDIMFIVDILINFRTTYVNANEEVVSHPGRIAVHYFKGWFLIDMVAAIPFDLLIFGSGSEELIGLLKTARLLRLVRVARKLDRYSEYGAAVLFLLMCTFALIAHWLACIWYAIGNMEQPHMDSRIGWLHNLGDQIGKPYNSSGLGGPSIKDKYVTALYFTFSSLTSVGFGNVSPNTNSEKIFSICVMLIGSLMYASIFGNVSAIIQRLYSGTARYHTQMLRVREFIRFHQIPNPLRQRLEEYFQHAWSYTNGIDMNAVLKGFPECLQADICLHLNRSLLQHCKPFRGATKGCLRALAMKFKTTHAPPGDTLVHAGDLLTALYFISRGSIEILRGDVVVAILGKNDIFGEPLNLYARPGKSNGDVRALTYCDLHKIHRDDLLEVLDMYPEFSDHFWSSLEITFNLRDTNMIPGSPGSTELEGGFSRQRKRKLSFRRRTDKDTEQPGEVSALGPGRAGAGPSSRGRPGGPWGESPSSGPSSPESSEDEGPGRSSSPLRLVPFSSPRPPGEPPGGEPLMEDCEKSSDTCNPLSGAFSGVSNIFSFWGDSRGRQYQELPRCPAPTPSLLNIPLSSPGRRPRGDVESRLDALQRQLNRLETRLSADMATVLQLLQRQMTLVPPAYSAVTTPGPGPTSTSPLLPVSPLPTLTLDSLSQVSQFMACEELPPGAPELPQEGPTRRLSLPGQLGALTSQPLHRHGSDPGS
For the molecule `CNC(=O)c1[nH]nc2c1CCc1ccccc1-2`, the “hERG current change (%, negative = inhibition) at 10uM” value came to 4.63%. As for `Cc1ccc2nc(SCC(=O)NCc3ccc(F)cc3)nc(=O)n2c1`, the figure is -21.7%. As for `CCN(CC)C(=O)Cn1nc(-c2ccccc2O)nc1SCC(=O)Nc1ccc(OC)cc1`, the figure is -26.1%; as for `CCOC(=O)c1cnc(-c2cccc(OC)c2)[nH]c1=O`, -8.93%. Under `Cl.OCCN(CCO)CC(O)COc1ccc(C23CC4CC(CC(C4)C2)C3)cc1` (stereo not drawn) stands -13.2%; under `Cc1ccc(CNC(=O)[C@H](C)NC(=O)C2CCN(C(=O)[C@@H](N)CC(C)C)CC2)cc1`, 3.65%; under `COc1cccc(-c2nc(CS(=O)(=O)CC(=O)NCCCN3CCc4ccccc4C3)c(C)o2)c1`, -71.6%. For `N#Cc1ccc(S(=O)(=O)N2CCN(Cc3cccs3)CC2)cc1`, the “hERG current change (%, negative = inhibition) at 10uM” value was -61.2%. As for `CC(C)(C)OC(=O)N1CCN(C(=O)c2nc[nH]c2C(=O)N2CCN(C(=O)OC(C)(C)C)CC2)CC1`, the figure is 16%; as for `O=C(CSc1ncnc2ccccc12)NCCCO`, 0.643%; as for `O=C(NC(Cc1ccc(O)cc1)C(=O)O)c1ccc2c(c1)OCO2` (stereo not drawn), -13.6%. Regarding `CCOC(=O)CNc1c(-c2ccccc2)nc2ccc(Cl)cn12`, the “hERG current change (%, negative = inhibition) at 10uM” value is -64.4%. As for `Cc1nc(C)c(C(=O)OCC(=O)N2CCN(c3ccccc3)CC2)s1`, the figure is -7.09%; as for `CCCCN(C)C(=O)c1cn(CC)c2nc(C)ccc2c1=O`, -3.49%. As to `Cc1nnc(N2C(=O)C(=O)/C(=C(/O)c3ccc4c(c3)CC(C)O4)C2c2ccccc2F)s1` (stereo not drawn), the “hERG current change (%, negative = inhibition) at 10uM” value is reported as 17.7%.

Turning to `CCN1C(=O)c2ccccc2S(=O)(=O)c2ccc(C(=O)NCC(OC)OC)cc21`, the “hERG current change (%, negative = inhibition) at 10uM” value is 6.16%. Regarding `COc1c2ccoc2nc2c(OC)c(OCC(OC(C)=O)C(C)(C)O)ccc12` (stereo not drawn), the “hERG current change (%, negative = inhibition) at 10uM” value stood at 17.9%. Under `N#CN=C1SCCS1` stands 11.6%; under `O=C(CN1C(=O)CCC1=O)Nc1ccc(S(=O)(=O)N2CCOCC2)cc1`, 4.4%; under `Nc1cc(C(F)(F)F)ccc1-n1cccc1`, 16.3%. As to `CC1(C)CC(=O)C=C(NC2CCCC(O)C2)C1` (stereo not drawn), the “hERG current change (%, negative = inhibition) at 10uM” value was found to be 15.2%. As for `[N-]=[N+]=CC(=O)C(c1ccccc1)(c1ccccc1)c1ccccc1`, the figure is 12.1%; as for `O=C(NC1CCCCCCC1)c1cc(-c2ccccn2)nc2ccccc12`, 2.16%. `Cc1ccc(OCC(=O)NC(=S)Nc2ccc(S(=O)(=O)Nc3cc(C)on3)cc2)c(Br)c1`: the “hERG current change (%, negative = inhibition) at 10uM” value turned out to be 4.63%.
